Patent EP4603109A1 (Sichuan Kelun-Biotech Biopharmaceutical Co., Ltd., dated 2024)

How the values were obtained:
rat B7-H3 on CHO-S cells = biological target: T1, rat B7-H3 on CHO-S cells (rat, UniProt Q7TPB4 29-316); assay: flow cytometry on CHOS-rat B7-H3 cells
T1 construct: whole, on cells; also called CHO-S-rat B7-H3; CHOS-rat B7-H3
T1 sequence (looked up): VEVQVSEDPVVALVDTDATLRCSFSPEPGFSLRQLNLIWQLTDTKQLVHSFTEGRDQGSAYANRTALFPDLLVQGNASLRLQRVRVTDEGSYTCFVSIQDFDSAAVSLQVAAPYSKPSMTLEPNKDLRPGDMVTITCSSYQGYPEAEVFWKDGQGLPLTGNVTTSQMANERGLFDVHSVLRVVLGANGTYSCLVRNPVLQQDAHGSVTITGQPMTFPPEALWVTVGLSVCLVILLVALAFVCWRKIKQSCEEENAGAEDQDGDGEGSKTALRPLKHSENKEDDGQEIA

[1] = biological target: T2, human B7-H3-4Ig on CHO-S cells (human, UniProt Q5ZPR3 29-534); assay: flow cytometry on CHOS-human B7-H3-4Ig cells
T2 construct: whole, on cells; also called CHO-S-human B7-H3-4Ig; CHOS-human B7-H3-4Ig
T2 sequence (looked up): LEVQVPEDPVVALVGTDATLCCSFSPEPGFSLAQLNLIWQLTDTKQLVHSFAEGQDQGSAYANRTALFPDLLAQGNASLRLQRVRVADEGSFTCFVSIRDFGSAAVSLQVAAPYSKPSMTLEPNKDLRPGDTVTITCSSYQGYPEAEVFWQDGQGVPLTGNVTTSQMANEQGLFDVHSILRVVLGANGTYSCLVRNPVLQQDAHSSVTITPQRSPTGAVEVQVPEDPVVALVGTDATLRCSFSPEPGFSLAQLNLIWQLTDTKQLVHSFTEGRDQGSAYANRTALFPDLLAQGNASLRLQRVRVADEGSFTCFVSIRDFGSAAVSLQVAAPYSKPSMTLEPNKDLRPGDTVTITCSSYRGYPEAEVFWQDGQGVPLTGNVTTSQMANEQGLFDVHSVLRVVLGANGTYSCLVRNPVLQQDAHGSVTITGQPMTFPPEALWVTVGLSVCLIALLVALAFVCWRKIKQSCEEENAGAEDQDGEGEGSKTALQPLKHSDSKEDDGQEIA

[2] = biological target: T3, human Fc receptor protein CD32a (human, UniProt P12318 36-218, limits assumed, biotinylated (sites not given)); assay: BLI (ForteBio), biotinylated receptor on SA sensor
T3 construct: Biotinylated protein captured on SA sensor
T3 sequence (looked up): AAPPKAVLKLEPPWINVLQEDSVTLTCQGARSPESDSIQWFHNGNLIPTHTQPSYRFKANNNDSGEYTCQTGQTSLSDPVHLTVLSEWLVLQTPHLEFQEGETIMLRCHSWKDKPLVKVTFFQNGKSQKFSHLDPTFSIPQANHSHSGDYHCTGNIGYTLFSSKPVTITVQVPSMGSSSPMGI

[3] = biological target: T4, B7-H3 on human tumor cell lines (HT29, NCI-N87, HCC1806, HCC827, A375) (human, UniProt Q5ZPR3 29-534); assay: flow cytometry on HT29 cells
T4 construct: whole, on cells
T4 sequence (looked up): T2 sequence (looked up)

[4] = biological target: T5, human B7-H3-2Ig-his protein (human, UniProt Q5ZPR3-2 29-245, limits assumed); assay: BLI (ForteBio), ADC on Protein A sensor, antigen 200-3.125 nM, 1:1 global fit
T5 construct: the 2Ig form is its isoform 2; not shown: His tag
T5 sequence (looked up): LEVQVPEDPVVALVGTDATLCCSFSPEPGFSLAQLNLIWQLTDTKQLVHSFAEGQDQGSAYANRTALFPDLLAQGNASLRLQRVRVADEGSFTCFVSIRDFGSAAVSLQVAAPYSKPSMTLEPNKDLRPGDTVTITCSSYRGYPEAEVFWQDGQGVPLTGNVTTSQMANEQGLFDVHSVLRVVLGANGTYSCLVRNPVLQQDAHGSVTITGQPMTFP

[5] = biological target: T6, human B7-H3-4Ig-his protein (human, UniProt Q5ZPR3 29-461, limits assumed); assay: as above
T6 construct: not shown: His tag
T6 sequence (looked up): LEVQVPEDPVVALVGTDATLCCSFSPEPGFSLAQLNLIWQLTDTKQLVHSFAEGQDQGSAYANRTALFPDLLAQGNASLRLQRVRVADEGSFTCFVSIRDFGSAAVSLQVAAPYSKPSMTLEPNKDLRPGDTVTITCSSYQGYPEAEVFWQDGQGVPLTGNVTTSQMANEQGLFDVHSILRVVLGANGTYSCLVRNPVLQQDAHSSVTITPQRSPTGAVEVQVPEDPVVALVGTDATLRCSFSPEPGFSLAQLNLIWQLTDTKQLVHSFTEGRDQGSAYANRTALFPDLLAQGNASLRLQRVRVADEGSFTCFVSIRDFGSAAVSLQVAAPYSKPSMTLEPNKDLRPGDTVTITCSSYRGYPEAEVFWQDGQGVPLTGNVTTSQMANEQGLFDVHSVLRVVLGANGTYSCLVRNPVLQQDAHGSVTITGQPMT

[6] = biological target: T4, B7-H3 on human tumor cell lines (HT29, …); assay: flow cytometry on HCC827 cells
[7] = biological target: T4, B7-H3 on human tumor cell lines (HT29, …); assay: flow cytometry on NCI-N87 cells
[8] = biological target: T4, B7-H3 on human tumor cell lines (HT29, …); assay: flow cytometry on HCC1806 cells
human FcRn = biological target: T7, human FcRn (human, UniProt P55899 in part, biotinylated (sites not given)); assay: BLI (ForteBio), biotinylated FcRn on SA sensor, ADC from 5000 nM, 1:1 global fit
Sequence of human FcRn (P55899 24-297 limits assumed, form in doubt): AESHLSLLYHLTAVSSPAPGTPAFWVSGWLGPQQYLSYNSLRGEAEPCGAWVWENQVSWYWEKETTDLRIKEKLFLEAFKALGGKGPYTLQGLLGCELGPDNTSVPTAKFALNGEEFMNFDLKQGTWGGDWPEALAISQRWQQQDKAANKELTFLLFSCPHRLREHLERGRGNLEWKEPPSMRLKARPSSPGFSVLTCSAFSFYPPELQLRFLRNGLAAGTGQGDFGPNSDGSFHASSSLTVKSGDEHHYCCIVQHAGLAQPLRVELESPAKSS
T7 construct: Biotinylated protein captured on SA sensor

[9] = biological target: T4, B7-H3 on human tumor cell lines (HT29, …); assay: cell-based or functional assay
[10] = biological target: T8, B7-H3 on Calu6-B7-H3 and U87MG-B7-H3 cells; assay: cell-based or functional assay
T8 sequence (Q5ZPR3 1-534, species assumed, looked up): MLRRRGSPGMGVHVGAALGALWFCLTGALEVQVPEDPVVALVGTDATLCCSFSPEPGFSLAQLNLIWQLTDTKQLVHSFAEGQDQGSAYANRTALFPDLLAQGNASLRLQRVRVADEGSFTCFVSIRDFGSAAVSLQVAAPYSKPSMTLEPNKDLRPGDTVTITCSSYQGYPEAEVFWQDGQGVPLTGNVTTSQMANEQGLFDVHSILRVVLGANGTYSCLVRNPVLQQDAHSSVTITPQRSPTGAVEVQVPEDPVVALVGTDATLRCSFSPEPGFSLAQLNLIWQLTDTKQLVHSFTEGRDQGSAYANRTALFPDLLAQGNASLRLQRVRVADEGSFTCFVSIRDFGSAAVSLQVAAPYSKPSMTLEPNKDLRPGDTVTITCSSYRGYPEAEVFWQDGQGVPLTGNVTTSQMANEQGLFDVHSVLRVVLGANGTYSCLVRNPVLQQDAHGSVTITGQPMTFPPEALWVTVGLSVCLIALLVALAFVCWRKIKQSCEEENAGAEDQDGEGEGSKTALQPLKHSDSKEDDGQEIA

rat B7-H3-his protein = biological target: T9, rat B7-H3-his protein (rat, UniProt Q7TPB4 29-248, limits assumed); assay: BLI (ForteBio), ADC captured on Protein A sensor
T9 construct: not shown: His tag
T9 sequence (looked up): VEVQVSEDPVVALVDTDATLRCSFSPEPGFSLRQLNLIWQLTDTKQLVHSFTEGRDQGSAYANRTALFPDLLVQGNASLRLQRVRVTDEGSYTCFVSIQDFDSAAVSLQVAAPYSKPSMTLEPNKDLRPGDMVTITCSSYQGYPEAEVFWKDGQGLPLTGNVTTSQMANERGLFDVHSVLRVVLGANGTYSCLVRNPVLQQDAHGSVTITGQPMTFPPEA

B1: ADC 5 (2#8890-A-05, DAR 8) (antibody, human IgG1, kappa)
heavy: QVQLQESGPGLVQPSGTLSLTCAVSGGSDSSTNWWTWVRQSPGQGLEWIGEISPIGFTSYSPSLRSRVTISVDKSKTQFSLKLSSVTAADTAVYYCARDRLYFAFWGQGTLVTVSSASTKGPSVFPLAPSSKSTSGGTAALGCLVKDYFPEPVTVSWNSGALTSGVHTFPAVLQSSGLYSLSSVVTVPSSSLGTQTYICNVNHKPSNTKVDKKV[human IgG1 Fc with L234A L235A G237A (EU numbers) left out here]
light: EIVMTQSPATLSVSPGERATLSCRASQSVSSNLAWYQQKPGQAPRLLIYGASTRATGIPDRFSGSGSGTEFTLTISSLESEDFAVYYCQQYNNWPITFGQGTRLEIKRTVAAPSVFIFPPSDEQLKSGTASVVCLLNNFYPREAKVQWKVDNALQSGNSQESVTEQDSKDSTYSLSSTLTLSKADYEKHKVYACEVTHQGLSSPVTKSFNRGEC
modifications: cysteine sulfhydryls carry drug-linker A-05 (sites not stated; DAR 7.90 per antibody)
B1 was tested, and the binding result (rat B7-H3 on CHO-S cells) was “no binding (tested: 10 ug/ml (highest concentration))”, the EC50 [1] was 41.5 ng/mL and the binding result [2] was “no binding (tested: 5000 nM (highest concentration))”. The EC50 [3] was 2.33 ng/mL, the Kd [4] was 23.4 nM and the Kd [5] was 0.588 nM. The EC50 [6] was 7.58 ng/mL, the EC50 [7] was 2.33 ng/mL and the EC50 [8] was 3.13 ng/mL. The Kd (human FcRn) was 14.5 nM, the “IC50 (nM), in vitro cytotoxicity on A375 cells (CCK8)” value [9] was 0.475 nM and the “IC50 (nM), in vitro cytotoxicity on Calu6-B7-H3 cells (CCK8)” value [10] was 0.253 nM. The “IC50 (nM), in vitro cytotoxicity on U87MG-B7-H3 cells (CCK8)” value [10] was 0.0865 nM and the binding result (rat B7-H3-his protein) was “no binding (tested: 200 nM (highest antigen concentration))”.

B2: ADC 3 (2#8890-M-01, DAR 4) (antibody, human IgG1, kappa)
heavy: B1 heavy
light: B1 light
modifications: cysteine sulfhydryls carry drug-linker M-01 (sites not stated; DAR 3.89 per antibody)
Binder B2 has a Kd (human FcRn) of 15.1 nM.

B3: ADC 11 (2#8890-B-01, DAR 8) (antibody, human IgG1, kappa)
heavy: B1 heavy
light: B1 light
modifications: cysteine sulfhydryls carry drug-linker B-01 (sites not stated; DAR 7.75 per antibody)
Binder B3 has a Kd (human FcRn) of 10.7 nM.

B4: ADC 9 (2#8890-A-14, DAR 8) (antibody, human IgG1, kappa)
heavy: B1 heavy
light: B1 light
modifications: cysteine sulfhydryls carry drug-linker A-14 (sites not stated; DAR 7.22 per antibody)
For B4, the binding result (rat B7-H3 on CHO-S cells) was “no binding (tested: 10 ug/ml (highest concentration))”, the EC50 [1] was 46 ng/mL and the binding result [2] was “no binding (tested: 5000 nM (highest concentration))”. For the same binder, the EC50 [3] was 5.66 ng/mL, the Kd [4] was 23 nM and the Kd [5] was 0.412 nM. For the same binder, the EC50 [6] was 13.1 ng/mL, the EC50 [7] was 5.95 ng/mL and the EC50 [8] was 7.26 ng/mL. The Kd (human FcRn) was 15 nM, the “IC50 (nM), in vitro cytotoxicity on A375 cells (CCK8)” value [9] was 2.64 nM and the “IC50 (nM), in vitro cytotoxicity on Calu6-B7-H3 cells (CCK8)” value [10] was 0.328 nM. For the same binder, the “IC50 (nM), in vitro cytotoxicity on U87MG-B7-H3 cells (CCK8)” value [10] was 0.0975 nM and the binding result (rat B7-H3-his protein) was “no binding (tested: 200 nM (highest antigen concentration))”.
